{"source": "the supplement of paper PMC10126150", "note": "Sequences with one replicate were seen in a single cluster, so their values are uncertain.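 Also: ATP exposure 15 min at 22 °C before imaging.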"}
{"tested_on": "ATP", "test": "switch fluorescence ratio, 500 uM ATP over buffer (Cy3 cluster intensity, sum of 5 cycles each) (fold (ratio)); higher = stronger signal-on switching upon ATP binding; sequences stand for … in TCGTCGGCAGCGTCAGATGTGTATAAGAGACAGTTTTTTTTTTTTTTTTTTTTTTTTT…TC", "conditions": "aptamer strand: ATP DNA aptamer (quencher-CACCTGGGGGAGTATTGCGGAGGAAGG + anchor), 100 nM annealed; ATP concentration: 500 uM; one replicate", "outline": "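For every switch-domain sequence, the fluorescence ratio is the mean of per-cluster values, each being summed target-cycle Cy3 intensity over summed buffer-cycle Cy3 intensity. Clusters outside 100-1000 RFU were excluded. On a modified Illumina MiSeq flow-cell, the Cy3-labelled switching-strand clusters were annealed to 100 nM quencher-labelled ATP aptamer, imaged in selection buffer and then after 15 min with 500 uM ATP at 22 °C. Five such cycles were run, with NaOH stripping and re-annealing between them.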"}
{"sequence": "GCATGTCACA", "switch fluorescence ratio": 1.01}
{"sequence": "GCATTAAATT", "switch fluorescence ratio": 0.961}
{"sequence": "GCATTACCGT", "switch fluorescence ratio": 1.08}
{"sequence": "GCATTACGTG", "switch fluorescence ratio": 1.09}
{"sequence": "GCATTACTGT", "switch fluorescence ratio": 1.27}
{"sequence": "GCATTTACTC", "switch fluorescence ratio": 2.43}
{"sequence": "GCCAAAGTCG", "switch fluorescence ratio": 1.03}
{"sequence": "GCCAACCCGC", "switch fluorescence ratio": 1.43}
{"sequence": "GCCAACGCTC", "switch fluorescence ratio": 1.53}
{"sequence": "GCCAACTCCT", "switch fluorescence ratio": 1.1}
{"sequence": "GCCAATATTG", "switch fluorescence ratio": 1.04}
{"sequence": "GCCACAGTAT", "switch fluorescence ratio": 1.03}
{"sequence": "GCCACCCAAA", "switch fluorescence ratio": 1}
{"sequence": "GCCACCGATT", "switch fluorescence ratio": 1.05}
{"sequence": "GCCACGTACA", "switch fluorescence ratio": 1.63}
{"sequence": "GCCAGAGACG", "switch fluorescence ratio": 1}
{"sequence": "GCCAGATCAA", "switch fluorescence ratio": 1.03}
{"sequence": "GCCAGCTACT", "switch fluorescence ratio": 1.08}
{"sequence": "GCCAGGAACT", "switch fluorescence ratio": 1.01}
{"sequence": "GCCAGGTTGT", "switch fluorescence ratio": 1.5}
{"sequence": "GCCAGTACGC", "switch fluorescence ratio": 1.03}
{"sequence": "GCCAGTAGCC", "switch fluorescence ratio": 0.946}
{"sequence": "GCCATACCGG", "switch fluorescence ratio": 1.02}
{"sequence": "GCCATACTA", "switch fluorescence ratio": 1.52}
{"sequence": "GCCATACTTC", "switch fluorescence ratio": 1.24}
{"sequence": "GCCATAGTGT", "switch fluorescence ratio": 0.979}
{"sequence": "GCCATGTCGG", "switch fluorescence ratio": 0.971}
{"sequence": "GCCATTAATA", "switch fluorescence ratio": 0.975}
{"sequence": "GCCATTTCGC", "switch fluorescence ratio": 0.992}
{"sequence": "GCCCAAATAT", "switch fluorescence ratio": 0.999}
{"sequence": "GCCCAACGAG", "switch fluorescence ratio": 1.02}
{"sequence": "GCCCACTAGA", "switch fluorescence ratio": 1}
{"sequence": "GCCCAGGACC", "switch fluorescence ratio": 1.05}
{"sequence": "GCCCAGGGTA", "switch fluorescence ratio": 1.42}
{"sequence": "GCCCAGTGAG", "switch fluorescence ratio": 1.86}
{"sequence": "GCCCCATAAA", "switch fluorescence ratio": 0.993}
{"sequence": "GCCCCCGGGT", "switch fluorescence ratio": 0.998}
{"sequence": "GCCCCGAATT", "switch fluorescence ratio": 0.977}
{"sequence": "GCCCCGATGT", "switch fluorescence ratio": 1.06}
{"sequence": "GCCCCGGACA", "switch fluorescence ratio": 1.05}
{"sequence": "GCCCCGTATC", "switch fluorescence ratio": 1.08}
{"sequence": "GCCCCGTCAA", "switch fluorescence ratio": 1.3}
{"sequence": "GCCCCTTTCA", "switch fluorescence ratio": 1.01}
{"sequence": "GCCCCTTTTC", "switch fluorescence ratio": 1.03}
{"sequence": "GCCCGAAGAC", "switch fluorescence ratio": 2.69}
{"sequence": "GCCCGATG", "switch fluorescence ratio": 1.03}
{"sequence": "GCCCGCTCGG", "switch fluorescence ratio": 1}
{"sequence": "GCCCGCTGTA", "switch fluorescence ratio": 1.13}
{"sequence": "GCCCGTGGAC", "switch fluorescence ratio": 1.25}
{"sequence": "GCCCGTTATG", "switch fluorescence ratio": 1}
{"sequence": "GCCCTAGAAT", "switch fluorescence ratio": 0.995}
{"sequence": "GCCCTAGCCC", "switch fluorescence ratio": 0.964}
{"sequence": "GCCCTCGCAC", "switch fluorescence ratio": 1.31}
{"sequence": "GCCCTGACAC", "switch fluorescence ratio": 1.06}
{"sequence": "GCCCTGTAAT", "switch fluorescence ratio": 1.04}
{"sequence": "GCCCTTACCT", "switch fluorescence ratio": 1.17}
{"sequence": "GCCCTTAGAC", "switch fluorescence ratio": 1.03}
{"sequence": "GCCCTTTATC", "switch fluorescence ratio": 0.985}
{"sequence": "GCCCTTTGGT", "switch fluorescence ratio": 0.967}
{"sequence": "GCCCTTTGTC", "switch fluorescence ratio": 0.978}
{"sequence": "GCCGAAGGTT", "switch fluorescence ratio": 1}
{"sequence": "GCCGACAGTC", "switch fluorescence ratio": 1.04}
{"sequence": "GCCGACCACT", "switch fluorescence ratio": 1.03}
{"sequence": "GCCGACTGC", "switch fluorescence ratio": 1.06}
{"sequence": "GCCGATTCAA", "switch fluorescence ratio": 1.16}
{"sequence": "GCCGATTGAA", "switch fluorescence ratio": 0.993}
{"sequence": "GCCGCCGATC", "switch fluorescence ratio": 1.08}
{"sequence": "GCCGCCTGCT", "switch fluorescence ratio": 1.03}
{"sequence": "GCCGCGCTGG", "switch fluorescence ratio": 1.03}
{"sequence": "GCCGCTGTCA", "switch fluorescence ratio": 0.991}
{"sequence": "GCCGGACGTG", "switch fluorescence ratio": 1.03}
{"sequence": "GCCGGGAGAA", "switch fluorescence ratio": 1.27}
{"sequence": "GCCGGGGTAA", "switch fluorescence ratio": 0.95}
{"sequence": "GCCGGTTTTT", "switch fluorescence ratio": 1.02}
{"sequence": "GCCGTACCCA", "switch fluorescence ratio": 0.996}
{"sequence": "GCCGTACCGG", "switch fluorescence ratio": 1.01}
{"sequence": "GCCGTGTGAC", "switch fluorescence ratio": 0.949}
{"sequence": "GCCGTTAAAC", "switch fluorescence ratio": 1.03}
{"sequence": "GCCGTTTTAT", "switch fluorescence ratio": 0.98}
{"sequence": "GCCGTTTTT", "switch fluorescence ratio": 1}
{"sequence": "GCCTAAATCC", "switch fluorescence ratio": 1}
{"sequence": "GCCTAGTTCC", "switch fluorescence ratio": 1.08}
{"sequence": "GCCTCAAACA", "switch fluorescence ratio": 1.02}
{"sequence": "GCCTCAACTA", "switch fluorescence ratio": 1.01}
{"sequence": "GCCTCATAGA", "switch fluorescence ratio": 1.03}
{"sequence": "GCCTCATCTC", "switch fluorescence ratio": 0.997}
{"sequence": "GCCTCATTTA", "switch fluorescence ratio": 1.06}
{"sequence": "GCCTCCCAGT", "switch fluorescence ratio": 1.06}
{"sequence": "GCCTCTCGCC", "switch fluorescence ratio": 1.63}
{"sequence": "GCCTCTGACG", "switch fluorescence ratio": 1.06}
{"sequence": "GCCTGCGCGC", "switch fluorescence ratio": 1.18}
{"sequence": "GCCTGGGAAC", "switch fluorescence ratio": 0.979}
{"sequence": "GCCTGGGAAT", "switch fluorescence ratio": 1.02}
{"sequence": "GCCTTAGTGT", "switch fluorescence ratio": 0.99}
{"sequence": "GCCTTCATGA", "switch fluorescence ratio": 1.02}
{"sequence": "GCCTTCATT", "switch fluorescence ratio": 0.991}
{"sequence": "GCCTTGGTTG", "switch fluorescence ratio": 1.02}
{"sequence": "GCCTTGGTTT", "switch fluorescence ratio": 0.982}
{"sequence": "GCCTTTAACC", "switch fluorescence ratio": 1.04}
{"sequence": "GCCTTTCCTT", "switch fluorescence ratio": 2.01}
